About 7,500 (2.1%) of roughly 360,000 compounds were called active. About 20% were inconclusive and are not listed. Calls follow the shape of the dose curve; as a rule, active = well fitted inhibition curve with a large enough effect; inconclusive = small, poorly fitted or top-dose-only effect, or effect the other way; inactive = flat fitted curve, though single readings scatter. The entries are a selection whose mix differs from that of the whole data set. The source holds several records for some structures; these can differ, active in one and inactive in another.
Test: Nrf2 qHTS screen for inhibitors; also: nearly all actives have a fitted effect of over 60% in size
Details: A549 ARE-Fluc reporter, luciferase luminescence, 18-24 h; series mostly up to 46 µM; activity change, negative = inhibition: at the top concentration
Text: NIH Molecular Libraries Probe Production Network [MLPCN]
NIH Chemical Genomics Center [NCGC]
Assay Provider: Shyam Biswal, Johns Hopkins University
Nrf2 is a transcription factor that maintains cellular redox homoestasis and protects cells from xenobiotics. Nrf2 binds to the antioxidant response element (ARE) to induce gene expression of a broad spectrum of genes that encode for antioxidants. […] Finding a small molecule that act as an inhibitor of Nrf2 function would represent a novel therapeutic target that could lead to improvement in survival of patients undergoing chemo- and/or radio- therapy.
This is the Nrf2 activity measured in the luminescent read.
1. Shibata, T., et al., Genetic Alteration of Keap1 Confers Constitutive Nrf2 Activation and Resistance to Chemotherapy in Gallbladder Cancer. Gastroenterology, 2008.
2. Sjoblom, T., et al., The consensus coding sequences of human breast and colorectal cancers. Science, 2006. 314(5797): p. 268-74.
NCGC Assay Protocol Summary:
A concentration-response assay was performed with A549 ARE_Fluc cells which are suspended in 5% FBS OPTI-MEM. Five uL were dispensed into 1536-well white TC-treated plate using the Kalypsys dispenser to achieve a density of 5000 cells/well in all columns except column 1. The plate is incubated at 37deg C at 5% CO2 for 2 hours before 23 nL of compounds are added with the Kalypsys pin tool equipped with a 1,536-pin array containing 10-nL slotted pins (FP1S10, 0.457-mm diameter, 50.8 mm long; V&P Scientific). The control compounds Budesonide and Staurosporine are both added at a concentration of 2mM and Budesonide is also added as a 1:10 titration, starting at 200uM, to achieve dose-response. After an 18-24 hour incubation at 37deg C at 5% CO2, 5ul of medium is added to column 1. Afterwards 1ul of 5x of CellTiter-Fluor (Promega) is added to every well. The plate is then incubated at 37deg C at 5% CO2 for 30 minutes before they are read on the ViewLux (Perkin Elmer) for a fluorescent read Ex=405(10)/Em=525(10) for a 3 second exposure, 2x binning, and high gain. Then 3 uL of 3x BugLite is dispensed into all wells and the plate is incubated at ambient room temperature for 15 minutes. Afterwards another ViewLux read is performed using the clear filter to get a luminescent read with the settings of 40 second exposure, 2x binning, and high gain. Cytotoxicity is assessed through the first fluorescent read and then biochemical activity against Nrf2 is measured in the luminescent read.
% is scaled to controls: 0 for no effect and ±100 for the full control effect; potency is read from the fitted curve at half-maximal effect.

Row | Structure (SMILES) | activity change, negative = inhibition | Potency
1 | Cc1ccc(N(C)C(=O)CCS(=O)(=O)c2cc3c(cc2Cl)NC(=O)CO3)cc1 | inactive: -10.1% | 
2 | CC(C)Cn1c(N)c(C(=O)COC(=O)/C=C/c2ccccc2)c(=O)n(C)c1=O |  | active: 6.51 µM
3 | COc1ccc(NC(=O)C2=CC(c3ccco3)=NS(=O)(=O)N2C)cc1 | inactive: -20.9% | 
4 | O=c1cc(-c2ccc(O)cc2)oc2cc(O)c([C@@H]3O[C@H](CO)[C@@H](O)[C@H](O)[C@H]3O)c(O)c12 | inactive: -2.86% | 
5 | CCOc1ccccc1NC(=O)CSc1nncc2ccccc12 |  | active: 23.1 µM
6 | CC(C)c1nnc(NC(=O)c2nc(S(=O)(=O)Cc3ccccc3)ncc2Cl)s1 | inactive: 3.65% | 
7 | Cc1onc(-c2c(Cl)cccc2Cl)c1C(=O)N[C@@H]1C(=O)N2[C@@H]1SC(C)(C)[C@@H]2C(=O)O | inactive: 2.26% | 
8 | CCCOc1ccc(CNC(=O)C2CCN(c3nn4c(=O)cc(C)nc4s3)CC2)cc1 | inactive: 22% | 
9 | CC1CCc2cc(F)ccc2N1C(=O)CSc1nnc2c(n1)[nH]c1ccc(F)cc12 (stereo unspecified) |  | active: 20.6 µM
10 | Cn1c2ccc(F)cc2c2nnc(SCCN3CCCCC3)nc21 | inactive: -17.9% | 
11 | O=C(NC(Cc1ccccc1)C(=O)O)/C(=C\c1ccc(Cl)cc1)NC(=O)c1ccco1 (stereo unspecified) | inactive: 4.3% | 
12 | Cc1cn(C2C=CC(CO)O2)c(=O)[nH]c1=O (stereo unspecified) | inactive: 11.4% | 
13 | CCCc1ccc(NC(=O)C2CCN(c3cnccn3)CC2)cc1 | inactive: -14.6% | 
14 | COc1ccc(S(=O)(=O)Cc2ccc(C(=O)NC3CCCCC3)o2)cc1 | inactive: 4.69% | 
15 | CN=C1S/C(=C/c2cn(CC(=O)OC)c3ccccc23)C(=O)N1C | inactive: 0.146% | 
16 | Cc1cnc(NC(=O)C2CC(=O)N(c3cccc(Cl)c3)C2)s1 (stereo unspecified) |  | active: 2.06 µM
17 | COCCCNC(=S)Nc1cccc2ncccc12 |  | active: 13 µM
18 | Cc1nc2c3ccccc3nc(NNC(=O)CCC(=O)N3CCN(c4ccccc4)CC3)n2n1 | inactive: 2.41% | 
19 | c1ccc2[nH]c(-c3ccnc4ccccc34)nc2c1 | inactive: 0.457% | 
20 | CCOc1ccc(CNC(=O)c2cc3oc4ccccc4c3n2C)cc1 | inactive: 28.1% | 
21 | CCC(CC)c1nnc(NC(=O)c2cccc(S(=O)(=O)N3CCc4ccccc43)c2)s1 |  | active: 20.6 µM
22 | O=C1[C@H](Cc2ccccc2)NCC=CC[C@@H](c2ccc(Cl)cc2)N1Cc1ccccc1 | inactive: 3.08% | 
23 | C[C@H]1CCC[C@]2(O[C@@H](CCO)C[C@H](O)[C@H]2O)O1 | inactive: 11.6% | 
24 | CCN1C(=O)[C@@H]2[C@@H](c3ccc(-c4ccccc4)cc3)N3CCC[C@@]3(C(=O)OC)[C@@H]2C1=O | inactive: 4.43% | 
25 | CCN(CC)c1cc(C)c2cc(NC(=O)c3ccccc3OC)ccc2n1 | inactive: -8.94% [at 9.27 µM] | 
26 | O=C(Nc1nc(-c2cccs2)cs1)c1ccc(S(=O)(=O)N2CCCCC2)cc1 |  | active: 20.6 µM
